# PMC4336329 (PLoS ONE, 2015)
# Hit rate of the full screen: of about 310,000 compounds, about 2,200 (0.71%) showed an effect of 50% or more. The effect is printed as a negative number. This is one part of the list.
# Target: human ether-à-go-go-related gene (hERG) potassium channel (human, UniProt Q12809)
# Assay: primary screen, population patch clamp on CHO cells stably expressing hERG
# Sequence of human ether-à-go-go-related gene (hERG) potassium channel (Q12809 whole entry, looked up): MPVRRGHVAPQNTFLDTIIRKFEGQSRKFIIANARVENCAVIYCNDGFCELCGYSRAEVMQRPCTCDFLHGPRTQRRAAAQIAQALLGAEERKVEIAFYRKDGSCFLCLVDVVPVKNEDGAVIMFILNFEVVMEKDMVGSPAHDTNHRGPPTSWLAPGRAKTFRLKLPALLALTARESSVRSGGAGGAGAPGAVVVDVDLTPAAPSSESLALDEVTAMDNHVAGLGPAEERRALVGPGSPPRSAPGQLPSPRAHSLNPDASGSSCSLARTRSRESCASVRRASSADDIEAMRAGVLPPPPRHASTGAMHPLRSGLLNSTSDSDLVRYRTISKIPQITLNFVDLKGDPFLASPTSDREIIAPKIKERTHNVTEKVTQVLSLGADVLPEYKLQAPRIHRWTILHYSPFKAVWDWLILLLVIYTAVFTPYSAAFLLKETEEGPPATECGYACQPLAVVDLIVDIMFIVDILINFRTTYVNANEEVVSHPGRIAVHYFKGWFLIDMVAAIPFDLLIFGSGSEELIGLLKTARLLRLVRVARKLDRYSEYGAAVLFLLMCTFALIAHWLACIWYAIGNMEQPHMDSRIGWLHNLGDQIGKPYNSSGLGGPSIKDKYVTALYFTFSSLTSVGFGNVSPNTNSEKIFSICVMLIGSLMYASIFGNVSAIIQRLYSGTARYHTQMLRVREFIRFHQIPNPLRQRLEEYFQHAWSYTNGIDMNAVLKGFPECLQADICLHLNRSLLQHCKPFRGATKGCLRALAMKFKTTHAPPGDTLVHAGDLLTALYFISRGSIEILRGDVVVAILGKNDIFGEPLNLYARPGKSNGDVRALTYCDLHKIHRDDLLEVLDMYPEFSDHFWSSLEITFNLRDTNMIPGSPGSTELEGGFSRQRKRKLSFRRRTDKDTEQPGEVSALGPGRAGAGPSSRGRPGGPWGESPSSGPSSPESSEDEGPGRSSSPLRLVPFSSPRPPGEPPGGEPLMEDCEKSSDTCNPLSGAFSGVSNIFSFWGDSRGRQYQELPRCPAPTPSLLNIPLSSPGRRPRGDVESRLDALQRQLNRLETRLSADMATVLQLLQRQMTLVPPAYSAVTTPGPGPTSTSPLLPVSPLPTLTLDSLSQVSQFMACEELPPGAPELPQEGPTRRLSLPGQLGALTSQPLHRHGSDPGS
row,Compound,"hERG current change (%, negative = inhibition) at 1uM [%]"
1,COC(=O)c1sccc1-n1cccc1C(=O)N1CCOCC1,-11.6
2,COC(=O)c1c(N)c(C#N)c(C)n1-c1ccccc1,10.9
3,Cc1cc(C)c(NC(=O)C2CCCN2CCC(C)C)c(C)c1 (centres unmarked),2.06
4,O=C(NN1c2ccccc2CCc2ccccc21)c1ccccc1Br,16.7
5,CCCCC(=O)Nc1ccc(NC(=S)NC(=O)CC)cc1OC,15.8
6,CCOC(=O)CC(=O)CSc1nc(-c2ccccc2)cc(-c2ccccc2)c1C#N,10.2
7,CCOC(=O)c1sc(NC(=O)C2CCC2)cc1C,10.3
8,Cc1ccc2nc(SCc3ccc([N+](=O)[O-])cc3)[nH]c2c1,-37.3
9,Cc1ccc(NC(=O)C2CCN(S(=O)(=O)c3ccc4c(c3)CC(C)N4C(=O)C3CCC3)CC2)nc1 (centres unmarked),15.3
10,Cc1[nH]c2ccccc2c1CCNC(=O)CCC(=O)c1ccccc1,1.75
11,CCC(=O)n1nc(-c2ccco2)nc1N,14.5
12,CC(=O)c1ccc2c3c(ccc(O)c13)CC2,11.5
13,CCn1c(C)cc(/C=C2\SC(=O)N(CC(=O)Nc3ccc(C)c(C)c3)C2=O)c1C,-7.72
14,Cc1cccc(N2CN=c3s/c(=C\c4ccccn4)c(=O)n3C2)c1,12
15,Cn1nnc2cc(C(=O)NCCC3=CCCCC3)ccc21,2.72
16,CCCCOC(=O)c1ccc(-c2ccc(/C=N/NC(=S)NCC)o2)cc1,10.6
17,Cc1ccc(NC(=O)C(c2ccccc2)N2CCN(C(=O)c3ccco3)CC2)cc1 (centres unmarked),4.12
18,Cc1cccc(NS(=O)(=O)c2cccc3nonc23)c1,12.6
19,CN(c1ccccc1)c1cc(Br)nc(Br)c1,6.4
20,COc1cc(OC)cc(-c2cc3ncccc3cn2)c1,1.45

row,Compound,"hERG current change (%, negative = inhibition) at 1uM [%]"
1,COC(=O)c1cc2cc(Cl)ccc2nc1SC,12.9
2,CC(=O)Nc1ccc(NC(=O)CSc2nnc3ccc(-c4cccnc4)nn23)cc1,20.3
3,CCOP(=O)(c1ccc(N(C)C)cc1)C(O)c1cccnc1 (centres unmarked),-2.34
4,CC12CCC(C(=O)NCc3ccc(F)cc3)(OC1=O)C2(C)C (centres unmarked),16.2
5,CC(=O)Nc1ccccc1C(=O)OCC(=O)c1ccccc1Cl,-0.459
6,Cc1nn(C)c(C(=O)N2CCc3ccccc32)c1Cl,0.757
7,CS(=O)(=O)N1CCN(c2ccccc2NC(=S)NC(=O)c2cccs2)CC1,16.6
8,O=C(Oc1ccccc1)c1cc2ccccc2o1,11.6
9,CN(C)C/C=C/C(O)(c1ccccc1)c1ccccc1,-0.919
10,Cn1cc([N+](=O)[O-])c(C(=O)N/N=C/c2ccncc2)n1,11.6
11,O=C(NCCCc1ccccc1)c1ccc(F)cc1,7.61
12,Cc1nc2ccccc2c(=O)n1/N=C/c1ccccn1,7.85
13,CCOC(=O)C1=C(C)N=C2SC(C(=O)OC)=CC(=O)N2C1c1ccc(OC)cc1 (centres unmarked),-1.71
14,O=C(CN1CCN(C(=O)C2CCCO2)CC1)Nc1ccc(Cl)cc1 (centres unmarked),2.09
15,CCOn1c(=O)c(-c2ccc(Br)cc2)[n+]([O-])c2ccccc21,13.1
16,CCOc1cc(C(=S)N2CCOCC2)ccc1OC,13.9
17,Cc1oc(C(C)(C)C)cc1C(=O)Nc1ccc(C(=O)O)cc1,1.99
18,Cc1ccc(N2CC(C(=O)Nc3cc(C)ccc3F)CC2=O)cc1 (centres unmarked),10.8
19,O=C(Cc1ccc([N+](=O)[O-])cc1)NCc1ccncc1,12.6
20,COc1ccc2c(c1OC)c(=O)n1c3ccc(OC(C)C(=O)NCCN4CCOCC4)cc3c3ccnc2c31 (centres unmarked),7.12

row,Compound,"hERG current change (%, negative = inhibition) at 1uM [%]"
1,Cc1cccc(CN2C(=O)[C@H]3Cc4c([nH]c5ccccc45)C(C)(C)N3C2=O)c1,6.67
2,CC(=O)Nc1ccc2cc3ccc(NC(C)=O)cc3nc2c1,22.2
3,COc1ccc(C(CNC(=O)COc2ccc(-c3ccccc3)cc2)N2CCOCC2)cc1 (centres unmarked),1.07
4,O=C1NC2CCc3nc4ccccc4c(=O)n3C2=Nc2ccccc21 (centres unmarked),-6.24
5,O=C(CCS(=O)(=O)c1ccccc1)Nc1ccc(Cl)cn1,11.5
6,Cc1cc(C)cc(Oc2ccc(C(F)(F)F)cc2C#N)c1,11.2
7,CCOC(=O)C1(CCCc2ccccc2)CCN(Cc2nccn2CC)CC1,-45.8
8,Cc1cc(Cn2nc(C(=O)NCc3cccc(Br)c3)cc2-c2ccccc2)on1,8.88
9,O=C(c1cccc2ccccc12)N1CCC(N2CCN(c3ccccc3)CC2)CC1,-2.01
10,CCOP(=O)(OCC)/C(=C/N1CCCCC1)NC(=O)c1ccccc1,13.7
11,O=C(CN1CCc2ccccc21)NC(c1ccccc1)c1ccccc1,-1.48
12,N#CC(C(=O)c1ccco1)c1ccccn1 (centres unmarked),12.4
13,O=S(=O)(N/N=C/c1ccc(OC2CSC2)cc1)c1ccccc1,3.45
14,Cn1c(CSCc2ccccc2)n[nH]c1=S,9.6
15,COc1ccc(N2CCN(S(=O)(=O)c3ccc(-c4cnc(C5CC5)o4)cc3)CC2)cc1,17.8
16,COC(=O)C1CN(C(=O)COc2cc(C)c(Cl)c(C)c2)c2ccccc2O1 (centres unmarked),17.5
17,C/C(=N\NC(=O)c1ccc(C)cc1C)c1ccc(-n2ccnc2)cc1,-4.72
18,O=C1Nc2ccccc2Nc2ncccc21,5.2
19,Brc1ccc(-c2nnc(-c3ccccc3Br)o2)cc1,10.3
